The text below walks through data of PubChem BioAssay AID1745853 (National Center for Advancing Translational Sciences (NCATS), 2022).

SMILES strings stand for the structures. Where “and” joins values, the source holds several entries; their conditions need not be identical. Equal entries are not always repeated. Some of the results follow. The main result of the screen is listed elsewhere. These columns were measured beside it and carry no call. Peptide text beside a SMILES is read from it. * marks the point of attachment. Cbz = O=C(OCc1ccccc1)*

Holding throughout (experiment): Primary Screen for Target Class Profiling of Small Molecule Inhibitors of Methyltransferases
Experiment [1] concerns the target Glycine N-methyltransferase (Homo sapiens) (UniProt Q14749). Conditions: purified enzyme, MTase-Glo SAH luminescence; measured here: GNMT inhibition; at 40 µM; stronger effect = lower value. The method in brief:
(§1)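 Each enzyme was assayed with SAM and its substrate. SAH formation detected by MTase-Glo luminescence; single-point 40 uM screen[…].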

In experiment [2] the target is Guanidinoacetate N-methyltransferase (Homo sapiens) (UniProt Q14353). The settings on record: purified enzyme, MTase-Glo SAH luminescence; measured here: GAMT inhibition; at 40 µM; stronger effect = lower value. Summed up: as §1
Experiment [3] addresses Histamine N-methyltransferase (Homo sapiens) (UniProt P50135). The settings on record: purified enzyme, MTase-Glo SAH luminescence; measured here: HNMT inhibition; at 40 µM; stronger effect = lower value. The method in brief: as §1
Experiment [4] addresses Nicotinamide N-methyltransferase (Homo sapiens) (UniProt P40261). Conditions: purified enzyme, MTase-Glo SAH luminescence; measured here: NNMT inhibition; at 40 µM; stronger effect = lower value. Summed up:
as §1

The target in experiment [5] is Phenylethanolamine N-methyltransferase (Homo sapiens) (UniProt P11086). Conditions: purified enzyme, MTase-Glo SAH luminescence; measured here: PNMT inhibition; at 40 µM; stronger effect = lower value. Summed up: as §1
% is set by controls: 0 for no effect and ±100 for the full control effect.

Take `Cc1cc(C(=O)N2CCCn3ccnc3C2c2ccccc2)n(C)n1` (stereo not given): the activity change, negative = inhibition in experiment [1] was -3.59%; in experiment [2], -1.8%; in experiment [3] it was -0.8%; in experiment [4], -5.7%; in experiment [5] it was 11.8%.

Regarding `CCC1(C)CC(=O)NC1=O` (stereo not given), the activity change, negative = inhibition in experiment [1] was -1.28%; in experiment [2], 4.15%; in experiment [3], 0.156%; in experiment [4], -8.16%; in experiment [5], 2.41%.

As for `O=C(c1cnccn1)N1CCN2C(=O)N(C3CCOCC3)C[C@H]2C1`, the activity change, negative = inhibition was 1.17% in experiment [1]; 0.402% in experiment [2]; -1.25% in experiment [3]; -1.85% in experiment [4]; -1.09% in experiment [5].

Take `CCC1C(=O)OC23C=C[C@@H]4C(C(=O)O)=CO[C@H](O[C@@H]12)[C@@H]43` (stereo not given in full): the activity change, negative = inhibition in experiment [1] is -0.535%; in experiment [2] it was -3.3%; in experiment [3] it was 7.81%; in experiment [4], -14%; in experiment [5] it was -6.45%.

As to `CC(C)(O)CC(=O)NCCn1ccc2ncnc(Nc3ccc(Oc4cccc(C(F)(F)F)c4)c(Cl)c3)c21`, the activity change, negative = inhibition in experiment [1] was -4.84%; in experiment [2] it was 10.6%; in experiment [3], -0.546%; in experiment [4], -32.3%; in experiment [5] it was -6.06%.

Turning to `Cc1nc(CC(=O)N2CCCC3(CCC(=O)N(CCC(C)C)C3)C2)cs1` (stereo not given), the activity change, negative = inhibition in experiment [1] was 6.08%; in experiment [2] it was 0.919%; in experiment [3], 2%; in experiment [4], -1.4%; in experiment [5], -1.08%.

Regarding `CCc1n[nH]c(CC2CCN(C(=O)C3CC3)CC2)n1`, the activity change, negative = inhibition in experiment [1] was -0.26%; in experiment [2], 0.6%; in experiment [3] it was 2.9%; in experiment [4], -2.19%; in experiment [5], -0.1%.

With `CCC(C)NC(=O)c1ccc2c(=O)n(C)c3nn(CC(=O)c4ccc(Cl)cc4)c(=O)n3c2c1` (stereo not given), the activity change, negative = inhibition in experiment [1] was 1.7%; in experiment [2] it was 0.789%; in experiment [3] it was 4.94%; in experiment [4] it was 0.286%; in experiment [5] it was 6.59%.

In the case of `CC(C)CCNC(=O)C1(C)Cn2nc(C(=O)NCc3ccc(OC(C)C)cc3)cc2C(=O)N1C` (stereo not given), the activity change, negative = inhibition was -7.77% in experiment [1]; 3.72% in experiment [2]; -5.49% in experiment [3]; -1.85% in experiment [4]; 0.286% in experiment [5].

For the compound `CCOC(=O)C1CCN(C(=O)Cn2c(=O)oc3cc(S(=O)(=O)N4CCCC4)ccc32)CC1`, the activity change, negative = inhibition was -4.82% in experiment [1]; 1.17% in experiment [2]; -5.97% in experiment [3]; -0.102% in experiment [4]; -7.15% in experiment [5].

On to `COC1=CC(=O)C[C@@H](C)[C@]12Oc1cc(OC)cc(OC)c1C2=O`, for which the activity change, negative = inhibition in experiment [1] is 0%; in experiment [2], 2.57%; in experiment [3], -1.8%; in experiment [4], -10.1%; in experiment [5], 3.01%.

As for `Cc1c(C(=O)N2CCOc3ccc(-c4ccc(N)nc4)cc3C2)ccc(S(C)(=O)=O)c1F`, the activity change, negative = inhibition was -11.6% in experiment [1]; -4.94% in experiment [2]; -24.9% in experiment [3]; -18.9% in experiment [4]; -8% in experiment [5].

For `CN(C)CCCCCCNC(=O)c1cccc(-c2cc(O)c3ncccc3c2)c1`, the activity change, negative = inhibition in experiment [1] is -4.58% and -1.76%; in experiment [2], 11.6%; in experiment [3], -31% and -64.4%; in experiment [4] it was -9.53% and -3.93%; in experiment [5], -3.94% and 3.94%.

`CC1=C(CCC(C)O[C@@H]2O[C@H](CO)[C@@H](O)[C@H](O)[C@H]2O)C(C)(C)CCC1=O` (stereo not given in full): the activity change, negative = inhibition in experiment [1] is 0.196%; in experiment [2], 2.54%; in experiment [3] it was 9.09%; in experiment [4], -9.95%; in experiment [5], -1.24%.

Regarding `Cc1noc(-c2ccc(N3CCN(Cc4nccn4C)CC3)nc2)n1`, the activity change, negative = inhibition in experiment [1] was -7.92%; in experiment [2], -10%; in experiment [3], -6.68%; in experiment [4], -16.8%; in experiment [5], -11.8%.

As for `OC[C@H]1NC[C@@H](O)[C@@H]1O`, the activity change, negative = inhibition is 3.4% in experiment [1]; 9.01% in experiment [2]; 5.38% in experiment [3]; -2.36% in experiment [4]; 7.81% in experiment [5].

Regarding `COCCNC(=O)c1cc2n(n1)CC(C)(C(=O)NC1CCCCCC1)N(C)C2=O` (stereo not given), the activity change, negative = inhibition in experiment [1] was determined as 8.93%; in experiment [2], 3.13%; in experiment [3], 9.97%; in experiment [4] it was 9.76%; in experiment [5], 1.71%.

In the case of `NC(=S)c1ccc[n+]([C@@H]2O[C@@H](COP(=O)([O-])OP(=O)(O)OC[C@H]3O[C@@H](n4cnc5c(N)ncnc54)[C@H](OP(=O)(O)O)[C@@H]3O)C(O)C2O)c1` (stereo not given in full), the activity change, negative = inhibition turned out to be 24.3% in experiment [1]; 85.7% in experiment [2]; 19.8% in experiment [3]; 51.7% in experiment [4]; 26.1% in experiment [5].

With `Cc1ccccc1NC(=O)CSc1nnc2n(C)c(=O)c3ccc(C(=O)NC4CCCCC4)cc3n12`, the activity change, negative = inhibition in experiment [1] is 2.31%; in experiment [2], 0.437%; in experiment [3] it was -2.61%; in experiment [4], 0.78%; in experiment [5] it was 5.56%.

Turning to `C=C[C@@]1(C)CCC2=C([C@H]1OC(C)=O)[C@H](OC(C)=O)CC1[C@](C)(C(=O)OC)CC[C@H](OC(C)=O)[C@]21C` (stereo not given in full), the activity change, negative = inhibition was 0.959% in experiment [1]; -0.681% in experiment [2]; 7.83% in experiment [3]; -16.7% in experiment [4]; 0.277% in experiment [5].

For `CC1CC(O)CC(C)(C)C1(O)CCO` (stereo not given), the activity change, negative = inhibition in experiment [1] is 0%; in experiment [2], 2.07%; in experiment [3], 1.24%; in experiment [4], -8.24%; in experiment [5], 4.51%.

Regarding `O=C(c1ccc(-c2ccc(N3CCCCCC3)nc2)cc1)N1CCCC1`, the activity change, negative = inhibition in experiment [1] was -10.3%; in experiment [2], -6.17%; in experiment [3], -17.6%; in experiment [4] it was -22%; in experiment [5], -25.5%.

With `CNC(=O)[C@@H]1CN(C(=O)c2cccc(C)n2)C[C@H]1COC`, the activity change, negative = inhibition in experiment [1] is -1.98%; in experiment [2], -2.5%; in experiment [3], -1.71%; in experiment [4] it was -6.18%; in experiment [5] it was -3.07%.

With `CC(C)OCCCn1c(=O)c2ccccc2n2c(CCC(=O)NCc3ccc4c(c3)OCO4)nnc12`, the activity change, negative = inhibition in experiment [1] is 2.76%; in experiment [2], -6.17%; in experiment [3], 9.89%; in experiment [4], 4.42%; in experiment [5], -4.31%.

For `CCCn1c(=O)c2ccc(C(=O)NC(C)C)cc2n2c(=O)n(CC(=O)N(C)c3ccccc3)nc12`, the activity change, negative = inhibition in experiment [1] was 1.87%; in experiment [2], 0%; in experiment [3], -0.67%; in experiment [4], 0.7%; in experiment [5], 1.79%.

Consider `Cc1ccc(C2(O)CCN(C(=O)CCC3NC(=O)NC3=O)CC2)nc1` (stereo not given), for which the activity change, negative = inhibition is -6.27% in experiment [1]; -7.41% in experiment [2]; -1.98% in experiment [3]; -10.2% in experiment [4]; -6.8% in experiment [5].

For the compound `Cc1ccc(NC(=O)CSc2nnc3n(CC(C)C)c(=O)c4ccccc4n23)c(Cl)c1`, the activity change, negative = inhibition in experiment [1] is -5.67%; in experiment [2], 0%; in experiment [3], 9.64%; in experiment [4], 0.845%; in experiment [5], 3.82%.

As to `O=C(c1ccncc1)N1CC(Oc2ccc(-c3noc(-c4ccccc4)n3)cc2)C1`, the activity change, negative = inhibition in experiment [1] was -1.28%; in experiment [2], 1.68%; in experiment [3], 2.04%; in experiment [4], -0.137%; in experiment [5], 2.67%.

Turning to `CC(C)[C@H](NC(=O)OCc1ccccc1)C(=O)N[C@H](C=O)Cc1ccccc1` (Cbz-Val-Phe-aldehyde), the activity change, negative = inhibition in experiment [1] is 3.7%; in experiment [2], 12.1%; in experiment [3], 6.27%; in experiment [4], -4.25%; in experiment [5], 1.08%.

With `Cc1cc2occ(CC(=O)N3CC[C@](C)(O)[C@@H](O)C3)c2cc1Cl`, the activity change, negative = inhibition in experiment [1] was -2.18%; in experiment [2], -1.45%; in experiment [3], -0.461%; in experiment [4] it was -3.09%; in experiment [5] it was -3.61%.
